Measurements reported in PubChem BioAssay AID1794842 (National Center for Advancing Translational Sciences (NCATS), 2023).
In all, about 2,800 compounds went through this assay and fewer than 10 were called active. The call rests on the fitted dose curve; in most records, active means well fitted curve in the direction sought with a large enough effect; inconclusive means small, poorly fitted or top-dose-only effect, or another doubt; inactive means no such curve, though single readings can be large or run the other way. This is one part of the list.

target: Metallo-beta-lactamase type 2 (Klebsiella pneumoniae) (UniProt C7C422); assay: qHTS to identify inhibitors of the New Delhi Metallo-beta-lactamase (NDM): Meropenem screen against the machine-based learning selections.; further: % of control where 0% means no effect; conditions: Purified NDM-1, meropenem hydrolysis, absorbance 300 nm; at 38.4 µM (top of the series) unless noted
Chain of UniProt C7C422 (C7C422 whole entry, looked up): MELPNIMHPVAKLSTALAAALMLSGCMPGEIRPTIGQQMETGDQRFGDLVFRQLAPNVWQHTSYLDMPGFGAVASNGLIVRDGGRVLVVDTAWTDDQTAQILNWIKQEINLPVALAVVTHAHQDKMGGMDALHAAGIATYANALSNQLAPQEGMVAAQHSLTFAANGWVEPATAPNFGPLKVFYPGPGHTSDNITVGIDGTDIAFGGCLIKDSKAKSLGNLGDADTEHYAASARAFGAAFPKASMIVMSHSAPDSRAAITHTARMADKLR
Summary of the method: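 NDM-1 (2 nM final) in 50 mM HEPES pH 7.0, 1 uM Zn2SO4, 0.01% Tween20 was preincubated with compounds for >30 min. Nitrocefin (16.7 uM final) was read at 485 nm after 15 min, and meropenem (50 uM final) at 300 nm after 30 min.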

Activity change, negative = inhibition, inactive:
Cc1cccc(C(=O)N2CC[C@@H](NC(=O)c3cnccn3)[C@H](O)C2)n1 0.0934%
O=C(NCCc1ccc(F)cc1)C1CN(c2ccccc2)C(=O)N1 (stereo not given) -0.594% [at 57.5 µM]
COc1ccccc1-n1cc(-c2ccnc(N3CC(n4cccn4)C3)n2)cn1 -4.55%
COCCNC(=O)c1ccc2c(c1)N(C)C(CC(=O)Nc1ccc(N)nc1)CO2 (stereo not given) -0.622%
CN(C)Cc1nnc(C2CCN(C(=O)Nc3cccc(C#N)c3)CC2)n1C 1.12%
Cc1cccc(OCC2CCCN(C(=O)c3sc(C(C)C)nc3C)C2)c1 (stereo not given) 1.91%
CN1C(=O)COC[C@@H]1[C@H](O)c1ccc(NC(=O)Nc2ccccc2)cc1 -0.431% [at 57.5 µM]
Cc1noc(C)c1-c1cnc2[nH]cc(CC(=O)NCc3cccnc3)c2c1 7.57% [at 57.5 µM]
Fc1ccc(CN2CC[C@H](c3nc4ccccc4o3)C2)cc1F -0.786% [at 57.5 µM]
Cc1ccccc1Nc1n[nH]c(C(O)c2ccc3c(c2)CCO3)n1 (stereo not given) 3.16% [at 57.5 µM]
O[C@@H]1C[C@@H](c2nc(-c3ccccn3)no2)N(Cc2ccccc2)C1 0.702% [at 57.5 µM]
COc1ccc(-c2noc([C@@H]3Cc4nc[nH]c4CN3C(=O)Nc3ccc(C)cc3)n2)cc1 7.68% [at 57.5 µM]
CCCNc1ncc(CN2CCCC(c3ccc(C(=O)O)cc3)C2)cn1 (stereo not given) 1.52%
Cn1cc(CN[C@H]2C[C@H]3C(=O)NC[C@@H](CCC(=O)N4CCCCC4)N3C2)c2ccccc21 4.63%
CC(C)c1ccc(NC2=N[C@H]3[C@@H](O)[C@H](O)C[C@H](C(=O)NC4CCCC4)[C@H]3S2)cc1 -2.7% [at 57.5 µM]
COc1cccc(Nc2ncc3c(n2)C(C)(C(=O)Nc2nc(C)cs2)CC3)c1 (stereo not given) 5% [at 57.5 µM]
O=C1[C@@H]2C[C@@H](CN2Cc2ccccc2)Oc2ccccc2N1Cc1ccccc1 0.797% [at 57.5 µM]
O=C(CN1C(=O)C2(CCNCC2)Nc2ccccc21)NC1CCCCCC1 2.46%
Cc1cc(-c2cccc(CCOc3cnc4c(ccn4CC(=O)O)c3)c2)ccn1 13.7% [at 57.5 µM]
O=C(CCC[C@H]1NC[C@@H]2C[C@H]1CN(Cc1ccccc1)C2)NCCc1cccnc1 65.2%
COC[C@H]1CCCN1C(=O)C[C@@H]1O[C@H](CNS(C)(=O)=O)[C@@H](O)[C@H]1O 19.9% [at 57.5 µM]
CC(C)NC(=O)C[C@@H]1C[C@H]2O[C@H](CNCc3ccccc3Cl)[C@@H](O)[C@H]2O1 1.79% [at 57.5 µM]
COc1ccc(NC(=O)N2CC[C@H]3COC(=O)N3c3cc(C)ccc3C2)cc1 0.822% [at 57.5 µM]
COc1cccc(S(=O)(=O)N2C[C@@H](C)[C@](O)(C3CCC3)C2)c1 -1.22%
Cc1nn(-c2ccccc2)c(C)c1S(=O)(=O)N[C@@H]1[C@@H](N)[C@H]2CCO[C@H]21 -0.639%
Cc1cc(F)ccc1-c1[nH]nc2ncc(-c3ccsc3)nc12 0.0975% [at 57.5 µM]
CCN(CC)C(=O)[C@@H]1CCC[C@@H](NS(=O)(=O)c2ccccc2)CN(C)C(=O)C1 0.226% [at 57.5 µM]
O=C(O)CCn1ncc2cc(OCc3ccc(-c4cccc(CO)c4)cc3)ccc21 52.6% [at 57.5 µM]
C#CCN(C)Cc1nc(C2(O)CCN(C(C)=O)CC2)cs1 0.966% [at 57.5 µM]
Cc1cc(C)c(CNC(=O)c2nc(-c3cccc(N4CCOCC4)c3)cc3[nH]ccc23)c(=O)[nH]1 10.8%
CC(C)CNC1(Cc2cc(CN(C)Cc3ccccc3)on2)COC1 -0.0043% [at 57.5 µM]
C=CCNC(=O)N[C@H]1C[C@H]2C(=O)Nc3ccc(-c4cccs4)cc3C(=O)N2C1 22.7% [at 57.5 µM]
COc1ccc(-c2cc(-c3ccccc3O)cn3cncc23)cc1 31.9% [at 57.5 µM]
c1cncc(-c2cnc([C@@H]3COCCN3Cc3ncc[nH]3)[nH]2)c1 82.9% [at 57.5 µM]
O=c1c2nc(-c3cccc(O)c3)ccc2ncn1-c1ccccc1 13.7% [at 57.5 µM]
O=C(NCCc1nc(-c2cccnc2)n[nH]1)C1CNCCO1 (stereo not given) 30.8%
OC1CCC(NCc2ccc(-c3cnc4c(OCc5ccccc5)nccn34)cc2)CC1 (stereo not given) 0.312% [at 57.5 µM]
CCOC(=O)N1CCN(C(C(=O)O)c2ccc(OC)nc2OC)CC1 (stereo not given) 29%
Cc1ccc2cccc(OCCNC(=O)C3NCCc4[nH]cnc43)c2n1 (stereo not given) 16.8%
N[C@@H]1CC[C@H](C(=O)Nc2ccc(CC(=O)N3CCCC3)cc2)C1 1.21%
c1cncc(CNc2cc(-c3cnc4ccccc4n3)c3cc[nH]c3n2)c1 -0.853%
COc1ccccc1-c1[nH]nc2ncc(C(=O)Nc3ccc4[nH]ccc4c3)nc12 8.38% [at 57.5 µM]
Cc1ccccc1-c1cnc2[nH]cc(CC(=O)Nc3ccccn3)c2c1 4.66% [at 57.5 µM]
COC[C@]1(O)CCN(S(=O)(=O)c2cccc(C(=O)O)c2)CC1(C)C 0.743%
COc1ccccc1N1CCN(C(=O)C[C@@H]2O[C@H](CNS(=O)(=O)c3ccc(Cl)cc3)[C@@H](O)[C@H]2O)CC1 -1.72%
Cn1ccnc1CN1C[C@@H]2C[C@H]1C(=O)N(CC1CC1)c1ccccc1O2 4.52% [at 57.5 µM]
Cc1nnc(-c2cc(N3CCN(c4ccccn4)CC3)ccn2)n1-c1ccccc1 9.72% [at 57.5 µM]
COCCN1C(=O)[C@@H]2C[C@@H](CN2C)Oc2ccccc21 8.82% [at 76.7 µM]
CC(C)Cc1ccc(S(=O)(=O)N2CCCC(Cn3cnc4cccnc43)C2)cc1 (stereo not given) -0.671%
CC(CO)NS(=O)(=O)c1cccc(C(=O)NCCc2ncnn2C)c1 (stereo not given) -0.683%
CCn1c(CO)nnc1C1CC(NC(=O)Cc2ccc(-n3cnnn3)cc2)C1 (stereo not given) -0.0467%
N#Cc1cccc(NC(=O)N[C@H]2CO[C@H]3[C@@H]2OC[C@@H]3Nc2nccc(C3CCCC3)n2)c1 -3.52% [at 57.5 µM]
Cc1noc([C@@H](C)NC(=O)C2CCCC2)c1C(=O)O 0.72% [at 76.7 µM]
O=C(Nc1ccccc1)O[C@@H]1CO[C@H]2[C@@H]1OC[C@@H]2n1nnnc1Sc1ccccc1 1.8% [at 57.5 µM]
OCCC1CN(CCOc2ccc(F)cc2)CCN1CC1CCCCC1 (stereo not given) -0.363%
NC(=O)c1cccnc1N1CCC2(CC1)CC(C(=O)O)N(C(=O)C1CC1)C2 (stereo not given) 10.6%
Cc1[nH]c2ccc(C(=O)N3CC[C@@](C)(O)[C@@H](O)C3)cc2c1C -1.16%
CCN(CC)Cc1cnc2c(C(=O)N(C)Cc3cc(C)cc(C)n3)cnn2c1 -0.367%
COc1ccc(S(=O)(=O)N2CCC(c3noc(-c4ccncc4)n3)C2)cc1 (stereo not given) 1.02%
Fc1ccc(-c2cnc([C@@H]3COCCN3Cc3cnc4ccccc4c3)[nH]2)cc1 2.48% [at 57.5 µM]
CN1C(=O)[C@@H]2C[C@@H](O)CN2C2(CN(Cc3cccc(F)c3)C2)C1=O 12.6% [at 57.5 µM]
NC(=O)Cc1c[nH]c2ncc(-c3cccc(CO)c3)cc12 6.7% [at 76.7 µM]
O=S(=O)(NC[C@H]1OC[C@@H](NCc2ccccc2F)[C@@H]1O)c1ccccc1 -2.73% [at 57.5 µM]
COCCNC(=O)[C@@H]1CCC[C@@H](NC(=O)c2cc(C)n(C)n2)CN(C)C(=O)C1 -1.1% [at 57.5 µM]
O=C1CCC2(CCCO2)CCN1Cc1ccc(C(F)(F)F)cc1 (stereo not given) -1.6%
O=C(NC[C@H]1O[C@@H](CO)[C@@H](O)[C@H]1N1CCCC1)c1ccc(F)c(Cl)c1 4.45% [at 57.5 µM]
O=C(NCC1CN(Cc2cccnc2)CC12CN(c1ccccc1)C2)Nc1ccccc1 (stereo not given) 0.419% [at 57.5 µM]
Cc1nnc(-c2cc(N3CCN(c4ccccn4)CC3)ccn2)n1C1CCCCC1 -2.36% [at 57.5 µM]
Cc1nn(-c2ccc(C(C)(C)C)cc2)c(C)c1[C@@H]1C=C[C@@H](NC(=O)NCc2ccccc2)C1 0.21% [at 57.5 µM]
CC(C)C(=O)N1CCC(N2C(=O)C3(CCCC3)C2c2ccccc2)CC1 (stereo not given) -2.44%
Cc1cnc(C(=O)N2CCCC(c3nc(-c4cccnc4)no3)CCNC(=O)CC2)cn1 (stereo not given) 11.1%
Cn1cncc1C(=O)N1CC(F)(F)C[C@H]1c1nc(C2CC2)no1 0.163%
COc1ccc(-c2noc([C@@H]3C[C@H](NCc4ccc(N(C)C)cc4)CN3C)n2)cc1 -5.46% [at 57.5 µM]
O=c1[nH]nc(CNCC2(O)CCCNC2)c2ccccc12 (stereo not given) 29%
CC1=C[C@@H](CNC(=O)COc2ccccc2)[C@H](C(C)C)C[C@H]1CC(=O)N1CCN(C)CC1 0.432%
